Source: PubChem BioAssay AID1745853 (National Center for Advancing Translational Sciences (NCATS), 2022)
This is one part of the list. These are further read-outs of the screen, such as a control signal, another cell line or another target. No call is given for them. Square brackets hold non-standard residues; d marks the D form. Peptide text beside a SMILES is read from it. ξ: configuration not given here. ξLac(3-iPr) = CC(C)CC(O)C(=O)O; NMeV = CN[CH](C(=O)O)C(C)C; NMeA = CN[CH](C)C(=O)O; βAla = NCCC(=O)O

Legend:
Experiment in all cases: Primary Screen for Target Class Profiling of Small Molecule Inhibitors of Methyltransferases
[1] = target: Glycine N-methyltransferase (Homo sapiens) (UniProt Q14749); conditions: purified enzyme, MTase-Glo SAH luminescence; measured here: GNMT inhibition; at 40 µM; stronger effect = lower value
Procedure, shortened: (§1)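 Each enzyme was assayed with SAM and its substrate. SAH formation detected by MTase-Glo luminescence; single-point 40 uM screen[…].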

[2] = target: Guanidinoacetate N-methyltransferase (Homo sapiens) (UniProt Q14353); conditions: purified enzyme, MTase-Glo SAH luminescence; measured here: GAMT inhibition; at 40 µM; stronger effect = lower value
Procedure, shortened: as §1

[3] = target: Histamine N-methyltransferase (Homo sapiens) (UniProt P50135); conditions: purified enzyme, MTase-Glo SAH luminescence; measured here: HNMT inhibition; at 40 µM; stronger effect = lower value
Procedure, shortened: as §1

[4] = target: Nicotinamide N-methyltransferase (Homo sapiens) (UniProt P40261); conditions: purified enzyme, MTase-Glo SAH luminescence; measured here: NNMT inhibition; at 40 µM; stronger effect = lower value
Procedure, shortened: as §1

[5] = target: Phenylethanolamine N-methyltransferase (Homo sapiens) (UniProt P11086); conditions: purified enzyme, MTase-Glo SAH luminescence; measured here: PNMT inhibition; at 40 µM; stronger effect = lower value
Procedure, shortened: as §1
On the % scale 0 is the no-effect control and ±100 the full control effect.

| SMILES | activity change, negative = inhibition [1] | activity change, negative = inhibition [2] | activity change, negative = inhibition [3] | activity change, negative = inhibition [4] | activity change, negative = inhibition [5] |
| --- | --- | --- | --- | --- | --- |
| CC(=O)O[C@H]1CC[C@@]2(CI)C(=CC[C@@H]3[C@@H]2CC[C@]2(C)C(=O)CC[C@@H]32)C1 | -7.1% | -9.37% | -5.49% | -13.6% | -0.108% |
| COc1ccc(NC(=O)N2Cc3ccccc3-n3cccc3C2c2cccs2)cc1 (stereo not drawn) | 9.71% | 5.34% | -0.532% | -3.02% | 5.74% |
| COC(=O)c1cccc(NC(=O)N2Cc3ccccc3-n3cccc3C2c2ccc(SC)cc2)c1 (stereo not drawn) | -1.01% | 6.11% | 0.844% | -5.55% | 1.48% |
| CN(C)c1ccc(C2c3cccn3-c3ccccc3CN2C(=O)Nc2ccccc2F)cc1 (stereo not drawn) | 5.67% | 2.01% | -0.014% | 4.57% | 6.21% |
| C#CCN[C@H](C)Cc1ccccc1 | -8.39% | 2.02% | -3.6% | -10.3% | -1.54% |
| CCCN(CCC)[C@@H]1CCc2cccc(O)c2C1 | -9.66% | 3.13% | -17.8% | -6.34% | 5.53% |
| Cc1ccc(CNC(=O)N2Cc3ccccc3-n3cccc3C2c2ccccc2C)cc1 (stereo not drawn) | 6.32% | 0% | -2.25% | -1.54% | 0.094% |
| O=C(Nc1ccccc1)N1Cc2ccccc2-n2cccc2C1c1ccccc1Cl (stereo not drawn) | 9.14% | 0.727% | 1.67% | 0.62% | 4.21% |
| Cc1c(Cl)cccc1NC(=O)N1Cc2ccccc2-n2cccc2C1c1ccc(N(C)C)cc1 (stereo not drawn) | 12.9% | 0.262% | 3.97% | 8.25% | 5.27% |
| CCCN1CCc2cc(O)cc3c2[C@H]1Cc1ccc(O)c(O)c1-3 | -92.7% | 2.63% | -29.5% | -12.6% | 2.37% |
| CN1C(=O)c2ccccc2NC(=O)[C@]12O[C@@H]2c1ccccc1 | -2.47% | -5.32% | 9.13% | -17.7% | -10.8% |
| Cc1ccc(NC(=O)N2C[C@@H]3C[C@H](C2)c2c(-c4cccs4)ccc(=O)n2C3)cc1 | -11% | -9.4% | -4.97% | -21.3% | -11.2% |
| CCc1ccc(C2c3cccn3-c3ccccc3CN2C(=O)NCc2ccc(F)cc2)cc1 (stereo not drawn) | 5.49% | 0.757% | -1.55% | 2.3% | 5.61% |
| CC(C)NC(=O)NC[C@H]1C[C@@H]2CCN1C[C@@H]2CN1CCSCC1 | -6.02% | -5.82% | -13% | -9.86% | -1.95% |
| CCOC(=O)C1(CCc2ccccc2)CCN(Cc2ccc(NC(C)=O)cc2)CC1 | -4.14% | -8.9% | -4.6% | -28% | -4.69% |
| COCCCNC(=O)N1Cc2ccccc2-n2cccc2C1c1cc(F)cc(F)c1 (stereo not drawn) | 7.24% | 3.24% | 3.42% | -4.09% | 3.06% |

| SMILES | activity change, negative = inhibition [1] | activity change, negative = inhibition [2] | activity change, negative = inhibition [3] | activity change, negative = inhibition [4] | activity change, negative = inhibition [5] |
| --- | --- | --- | --- | --- | --- |
| Cc1cccc(C2c3cccn3-c3ccccc3CN2C(=O)NCc2ccc(F)cc2)c1 (stereo not drawn) | 7.04% | 2.79% | 1.7% | -2.96% | 1.46% |
| CCc1ccc(C2c3cccn3-c3ccccc3CN2C(=O)Nc2cccc(C(F)(F)F)c2)cc1 (stereo not drawn) | 9.46% | 4% | 2.7% | -4.38% | 1.84% |
| Ic1ccccc1CNC1C2CCN(CC2)C1C(c1ccccc1)c1ccccc1 (stereo not drawn) | -12.7% | 9.67% | -13.2% | -11.5% | -12.6% |
| CCOc1ccc(NC(=O)N2Cc3ccccc3-n3cccc3C2c2ccc(C)cc2)cc1 (stereo not drawn) | 12.1% | 0% | 9.21% | 9.03% | 6.36% |
| CC(C)C1CN2CCCC2CN1 (stereo not drawn) | -1.51% | -1.05% | 1.56% | 1.49% | -1.4% |
| COc1cccc(CNC(=O)N2Cc3ccccc3-n3cccc3C2c2ccc(Cl)cc2)c1 (stereo not drawn) | 2.68% | 1.56% | 4.23% | 4.3% | 6.83% |
| COc1ccc2c(c1)/C(=C/c1cnc[nH]1)C(=O)N2 | – | -4.29% | – | -18.9% | -19.6% |
| COCCCNC(=O)N1Cc2ccccc2-n2cccc2C1c1ccc(SC)cc1 (stereo not drawn) | -3.64% | 0% | -3.17% | -12% | 2.23% |
| CCOC(=O)Cc1ccc(NC(=O)N2Cc3ccccc3-n3cccc3C2c2ccccc2)cc1 (stereo not drawn) | 4.05% | 4.08% | 2.57% | -1.05% | -0.304% |
| O=C(c1cccs1)N1C[C@@H]2C[C@H](C1)c1ccc(C3CCCCC3)c(=O)n1C2 | -7.34% | -9.72% | -4.46% | -18% | -2.73% |
| CCCN(CCC)CCc1ccc(O)c(O)c1 | -4.25% | 4.92% | -14.6% | -4.87% | 10.3% |
| Cc1cccc(C2c3cccn3-c3ccccc3CN2C(=O)Nc2ccc(Cl)cc2)c1 (stereo not drawn) | 5.51% | 4.09% | -3.13% | -0.495% | 3.23% |
| Cc1ccc(NC(=O)N2Cc3ccccc3-n3cccc3C2C(C)C)cc1 (stereo not drawn) | -0.529% | 0% | 9.23% | 11.1% | 9.88% |
| O=[S+]1([O-])NC2(CCN(Cc3cccnc3)C2)COc2ccncc21 (stereo not drawn) | -1.66% | 0.821% | 0.25% | 0.564% | -5.43% |
| CCC(C)C1NC(=O)C2CCCN2C(=O)C(CC(C)C)OC(=O)CCNC(=O)C(C)N(C)C(=O)C(C(C)C)N(C)C1=O (stereo not drawn) (cyclo([ξLac(3-iPr)]PI[NMeV][NMeA][βAla]); configuration not given here) | 3.23% | 2% | 11.4% | -10.1% | 5.84% |
